Positions count from the first letter of the chain named. No constants are given. Whether binding was seen depends on the method and setting. Some entries that bind do so weakly or less than the wild type.
Columns and labels:
[1] = target: T1, Gal4BD-SMC5 (S. pombe) (UniProt O13710); experiment: two-hybrid; 5Y2H: Gal4BD-SMC5 + Gal4AD-SMC6 + non-hybrid Nse4, Nse3 and Nse1 (p416ADH1-Nse4+Nse3+Nse1); plates with increasing 3-aminotriazole
T1 sequence: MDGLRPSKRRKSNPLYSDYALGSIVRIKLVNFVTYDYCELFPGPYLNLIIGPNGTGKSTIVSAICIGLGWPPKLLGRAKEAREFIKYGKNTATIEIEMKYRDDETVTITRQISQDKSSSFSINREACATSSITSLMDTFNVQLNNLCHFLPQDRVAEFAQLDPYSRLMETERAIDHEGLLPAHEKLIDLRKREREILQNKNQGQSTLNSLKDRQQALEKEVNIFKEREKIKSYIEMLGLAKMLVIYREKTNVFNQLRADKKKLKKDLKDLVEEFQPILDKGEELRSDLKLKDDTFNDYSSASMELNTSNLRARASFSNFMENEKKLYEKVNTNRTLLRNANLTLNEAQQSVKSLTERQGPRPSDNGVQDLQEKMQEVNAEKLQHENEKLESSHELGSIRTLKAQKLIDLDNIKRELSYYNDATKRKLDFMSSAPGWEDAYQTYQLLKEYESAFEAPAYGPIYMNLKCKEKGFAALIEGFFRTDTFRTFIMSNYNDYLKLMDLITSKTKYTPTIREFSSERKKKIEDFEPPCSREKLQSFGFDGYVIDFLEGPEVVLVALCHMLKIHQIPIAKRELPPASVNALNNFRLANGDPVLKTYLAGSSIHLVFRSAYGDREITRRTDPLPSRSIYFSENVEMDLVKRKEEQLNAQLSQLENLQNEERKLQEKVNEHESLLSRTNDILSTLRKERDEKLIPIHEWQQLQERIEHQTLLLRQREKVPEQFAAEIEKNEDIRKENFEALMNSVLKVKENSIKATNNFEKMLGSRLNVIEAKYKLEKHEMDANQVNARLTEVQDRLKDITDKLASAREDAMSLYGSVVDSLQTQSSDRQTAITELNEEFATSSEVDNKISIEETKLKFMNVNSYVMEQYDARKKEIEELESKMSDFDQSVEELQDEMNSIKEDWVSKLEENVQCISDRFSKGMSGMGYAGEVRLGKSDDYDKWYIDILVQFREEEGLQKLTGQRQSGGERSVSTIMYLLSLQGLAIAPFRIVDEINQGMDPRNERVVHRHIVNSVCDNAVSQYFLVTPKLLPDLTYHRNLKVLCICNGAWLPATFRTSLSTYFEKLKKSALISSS

[2] = target: T2, Gal4BD-SMC5 E995Q (S. pombe) (UniProt O13710); experiment: two-hybrid; 3Y2H: Gal4BD-SMC5 + Gal4AD-SMC6 + non-hybrid Nse4 (p416ADH1-Nse4); -L,T,U,H plates with 0.5 mM or increasing 3-aminotriazole, 28 °C
T2 sequence: T1 sequence with E995Q

[3] = target: T1, Gal4BD-SMC5 (S. pombe); experiment: as above
[4] = target: T3, Gal4BD-Nse4 T65R (S. pombe) (UniProt Q6BDR8); experiment: two-hybrid; classical Y2H: Gal4BD-Nse4 + Gal4AD-Nse3; -L,T,H plates with 10 mM 3-aminotriazole
T3 sequence: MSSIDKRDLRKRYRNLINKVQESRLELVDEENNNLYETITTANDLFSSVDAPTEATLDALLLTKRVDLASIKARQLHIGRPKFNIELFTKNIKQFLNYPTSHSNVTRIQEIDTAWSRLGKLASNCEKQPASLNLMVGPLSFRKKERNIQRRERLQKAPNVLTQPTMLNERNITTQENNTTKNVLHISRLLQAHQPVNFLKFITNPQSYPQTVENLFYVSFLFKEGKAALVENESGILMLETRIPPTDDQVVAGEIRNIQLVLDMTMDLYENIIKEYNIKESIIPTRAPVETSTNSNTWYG

[5] = target: T4, Gal4BD-Nse4 L68C (S. pombe) (UniProt Q6BDR8); experiment: as above
T4 sequence: T3 sequence with R65T, L68C

[6] = target: T5, Gal4BD-Nse4 L62C (S. pombe) (UniProt Q6BDR8); experiment: as above
T5 sequence: T3 sequence with L62C, R65T

[7] = target: T6, Gal4BD-Nse4 (S. pombe) (UniProt Q6BDR8); experiment: as above
T6 sequence: T3 sequence with R65T

Measured: binding

B1: Nse4 (aa1-300), non-hybrid (protein, UniProt Q6BDR8 1-300)
chain: T3 sequence with R65T
binds: [1] | [2] | [3]

B2: Gal4AD-Nse3 (protein, UniProt Q9Y7U4 1-328)
chain: MSQLSFTGKSSSKGRSRLTQEVRPTASQIIADEEASDLDEYEEDLEGSGNEDDFGPSMSRSSRGRKRRKGDPLELQSQFEERNETDAINFQLLVRNVVRYAICSQTSHNTITRKDIVQKAFPEGTSRNLFQSVFEEADRQLQLSFGFRLVAVTQSNRKKDMAVSQLRRPATSNANSSNLHRYWVLRSTLPMELQKDSRLIVDSVLDTAYYGFLMTVIAFIAVSHCSVGHSELQSFLQELLTEEETTPLHLDITRSLSLLVRQGYLDRVKDDTHNQFVYYIGSRAVTEISIEGLKSFVTEFFPDSDIDMDALLTEYRQEYQNQSSSSAA
binds: [4] | [5] | [6] | [7]

Source: article PMC7297730
